{"source": "the supplement of paper PMC11417369", "note": "± gives the standard deviation of the averaged measurements. This is one part of the list.", "data": [{"system": "PfAP2-EXP AP2 domain (GST-tagged)", "assay": "gcPBM binding intensity (ln(normalized median fluorescence intensity)); higher = stronger DNA binding", "summary_of_the_method": "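Probes on an Agilent 4 × 180k array were primer-extended, double-stranded and 36 bp long, taken from intergenic genomic regions, with negative controls added. GST-tagged P. falciparum DNA-binding domains from E. coli, about 25 μg on average, were applied to the array for 1 h in 1× PBS containing 1% milk, 0.2 mg/ml BSA, 0.5% salmon testes DNA and 0.03% Triton X-100. Binding intensity, obtained after Alexa488 anti-GST antibody detection and a 488 nm scan, is the highest Masliner-normalised natural-log median intensity across replicate spots of either probe orientation.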", "values": [{"sequence": "ATATTACTAATTAATGGTACACGTTATAATAAACTA [XGTACX_site7051]", "gcPBM binding intensity (ln)": "8.53 ± 0.43"}, {"sequence": "GCATAAAATATGATCGCACACTGTTTAAAATACTTA [CACACA_site828]", "gcPBM binding intensity (ln)": "8.41 ± 0.29"}, {"sequence": "AAAATATATACAAGCAAACACACGTAATATATATTA [CACACA_site2152]", "gcPBM binding intensity (ln)": "8.73 ± 0.5"}, {"sequence": "ATACCTTCTTCATTCACACATATACGTAAAATGTTC [CACACA_site5657]", "gcPBM binding intensity (ln)": "9.01 ± 0.48"}, {"sequence": "AAGGATTACAAAAAAAGTACAAATGGATTTTTTCCC [XGTACX_site8905]", "gcPBM binding intensity (ln)": "8.4 ± 0.26"}, {"sequence": "AAAAAAATTCTTGGCGCACACACTTTAAAAATTAAA [CACACA_site597]", "gcPBM binding intensity (ln)": "8.52 ± 0.17"}, {"sequence": "CTTACAAATAAACAACGTACTTATTCGAATTATGCT [XGTACX_site2431]", "gcPBM binding intensity (ln)": "8.62 ± 0.58"}, {"sequence": "CATACAGACGAACACACACACATATAAATATAAATA [CACACA_site6443]", "gcPBM binding intensity (ln)": "8.74 ± 0.55"}, {"sequence": "TATAATAAAATTGGTAGTACATTAATTTATGTATAG [XGTACX_site3059]", "gcPBM binding intensity (ln)": "8.43 ± 0.29"}, {"sequence": "TATTATTTTTTTTTTTGTACATATATGTATATATAT [XGTACX_site8471]", "gcPBM binding intensity (ln)": "8.46 ± 0.44"}, {"sequence": "AAATATTATATATATACACACACACCGGCATGCACA [CACACA_site7916]", "gcPBM binding intensity (ln)": "8.99 ± 0.49"}, {"sequence": "AACCACATGGTGTAATGTACATTACCTTAACAATAA [XGTACX_site3055]", "gcPBM binding intensity (ln)": "8.88 ± 0.49"}, {"sequence": "AAATGCGCCATGTGTACACATATATATATATATATA [CACACA_site4649]", "gcPBM binding intensity (ln)": "10.3 ± 0.33"}, {"sequence": "TTAAATAAGTTCTTCACACATATATATATATATATA [CACACA_site4742]", "gcPBM binding intensity (ln)": "10.2 ± 0.31"}, {"sequence": "TACATATATAAAAATTGTACACTTCATAAGAAAAAA [XGTACX_site4347]", "gcPBM binding intensity (ln)": "8.68 ± 0.3"}, {"sequence": "AAAATTTTTTAACACTGTACTTGTAATATTAAAACT [XGTACX_site8369]", "gcPBM binding intensity (ln)": "8.54 ± 0.45"}, {"sequence": "GTTTTAAAATTAAATATTATGGCATAATTCAAGAAA [GTGCAC_negctrl_site721]", "gcPBM binding intensity (ln)": "8.4 ± 0.33"}, {"sequence": "ATTCCCTTAAGAAACTGTACAAAACTTTCTTCGATT [XGTACX_site775]", "gcPBM binding intensity (ln)": "8.56 ± 0.54"}, {"sequence": "TATACATAAATTATATGTACTGAAAATACATAATTA [XGTACX_site3626]", "gcPBM binding intensity (ln)": "8.23 ± 0.26"}, {"sequence": "GTGTGTGTATATATTTGTACATATATTTAAACATAT [XGTACX_site1074]", "gcPBM binding intensity (ln)": "8.96 ± 0.16"}, {"sequence": "GGTAGGTGGATATATACACACATATATTATAGATAT [CACACA_site7021]", "gcPBM binding intensity (ln)": "8.56 ± 0.49"}, {"sequence": "ATCGAGAAAAATAAAATAATACAATTTCTTTAAATA [XGTACX_negctrl_site162]", "gcPBM binding intensity (ln)": "7.97 ± 0.35"}, {"sequence": "CACAGATATATACATACACACATATATACACATATA [CACACA_site6323]", "gcPBM binding intensity (ln)": "8.58 ± 0.38"}, {"sequence": "AAAAAAAAAAGAACCCGTACATAAATAATATATATA [XGTACX_site164]", "gcPBM binding intensity (ln)": "8.88 ± 0.27"}, {"sequence": "TTTTTTTTTTCTTAGGTGCAAAAAATAAGTATATAT [GTGCAC_site9394]", "gcPBM binding intensity (ln)": "8.47 ± 0.071"}, {"sequence": "TTAATTACATGTTATTGTACGTATTTTCTATCTATC [XGTACX_site844]", "gcPBM binding intensity (ln)": "8.94 ± 0.56"}, {"sequence": "TAAAAAATAAAATAATGTACATATGAATTATATATT [XGTACX_site8398]", "gcPBM binding intensity (ln)": "8.47 ± 0.45"}, {"sequence": "TTTTTTTTGTATTAATGTACATATAACTTTTTTTTT [XGTACX_site7903]", "gcPBM binding intensity (ln)": "8.48 ± 0.47"}, {"sequence": "AAAAAAAAAAAAGAAACACACACATTTGTATATAAT [CACACA_site8648]", "gcPBM binding intensity (ln)": "8.52 ± 0.57"}, {"sequence": "GAAACATAAAAATATATTGAAATAGTATCATGGGTA [CACACA_negctrl_site352]", "gcPBM binding intensity (ln)": "8.58 ± 0.42"}, {"sequence": "TATAGTTATATTAGAAGTACTTCATTTTAACATATT [XGTACX_site7101]", "gcPBM binding intensity (ln)": "8.42 ± 0.3"}, {"sequence": "TAAACCAAACAATTATGTATAAGATGTATATATATA [GTGCAC_negctrl_site438]", "gcPBM binding intensity (ln)": "9.33 ± 0.099"}, {"sequence": "AAATTCTTAACCCAACGTACATATAATAAATTCTTA [XGTACX_site8538]", "gcPBM binding intensity (ln)": "8.5 ± 0.61"}, {"sequence": "CATTATAAGAAACACACACACATATATATATATATA [CACACA_site1051]", "gcPBM binding intensity (ln)": "10.2 ± 0.47"}, {"sequence": "AAAAAGAAGAATATATGTACACAAAATTTATGAGTT [XGTACX_site8609]", "gcPBM binding intensity (ln)": "8.71 ± 0.46"}, {"sequence": "AAAAAAAAAAATATATTATTTTACTTGTTTATTTTA [CACACA_negctrl_site1447]", "gcPBM binding intensity (ln)": "8.03 ± 0.34"}, {"sequence": "GTATGTATATATGTATGTACTTATGTATCATTATTA [XGTACX_site2438]", "gcPBM binding intensity (ln)": "8.35 ± 0.26"}, {"sequence": "TAATATTTATGTTAATGTACAAAAAAACAAAACAAA [XGTACX_site301]", "gcPBM binding intensity (ln)": "8.66 ± 0.37"}, {"sequence": "ATAATATATATTAAACGTACATAAAATAATTATGGA [XGTACX_site1670]", "gcPBM binding intensity (ln)": "8.63 ± 0.29"}, {"sequence": "ATATATATATATCACCGTACTTATATAATAACATGA [XGTACX_site4398]", "gcPBM binding intensity (ln)": "9.95 ± 0.43"}, {"sequence": "ACAGATATATTTATTTGTACATATCACCAAAATGGA [XGTACX_site5644]", "gcPBM binding intensity (ln)": "8.37 ± 0.36"}, {"sequence": "ATTTTTATTAAAATATGTACGTATTTTACTCATACA [XGTACX_site5330]", "gcPBM binding intensity (ln)": "8.68 ± 0.38"}, {"sequence": "ATACAGAAAAAAAACACACACACATAATATACATAC [CACACA_site1933]", "gcPBM binding intensity (ln)": "8.81 ± 0.52"}, {"sequence": "ATAATATTCGAGTGTGCACACAAACATACATATATA [CACACA_site3396]", "gcPBM binding intensity (ln)": "9.1 ± 0.42"}, {"sequence": "TTTTTTTTTTATTTTTGTACATATATTTCAGTATTA [XGTACX_site8396]", "gcPBM binding intensity (ln)": "8.66 ± 0.47"}, {"sequence": "TAATTATTCTATTAAGTGCATATATTTTTAAAAAGA", "gcPBM binding intensity (ln)": "8.41 ± 0.11"}, {"sequence": "TTAATATAATAAAATCGTACAAATAAAATATAAAAT [XGTACX_site8730]", "gcPBM binding intensity (ln)": "8.79 ± 0.47"}, {"sequence": "AACCAATATGAGTATACACACATAAATATAAATATA [CACACA_site5968]", "gcPBM binding intensity (ln)": "8.46 ± 0.42"}, {"sequence": "AAAAAAAAAAAAGATACACACAAAAATGGATATATA [CACACA_site7069]", "gcPBM binding intensity (ln)": "8.41 ± 0.5"}, {"sequence": "TCTTTAAATCGAGTGTTAAATAATATAATATAAAAA [CACACA_negctrl_site1507]", "gcPBM binding intensity (ln)": "8.23 ± 0.35"}, {"sequence": "AAAAATGAGAAACACACACACATATATATATATATA [CACACA_site2228]", "gcPBM binding intensity (ln)": "10.1 ± 0.33"}, {"sequence": "TAAGAATAATGACATAGTACAATTTAATAGATCTAA [XGTACX_site3670]", "gcPBM binding intensity (ln)": "8.3 ± 0.61"}, {"sequence": "AAGTTTATTTGTTGCACACATATAAGTAGAGAAAAT [CACACA_site3027]", "gcPBM binding intensity (ln)": "8.81 ± 0.35"}, {"sequence": "TTTTCAAAATAATATTATATCAAATGCTAAAAAGAA [TGCATGCA_negctrl_site588]", "gcPBM binding intensity (ln)": "8.56 ± 0.37"}, {"sequence": "TTACGTTATATACATACACACCCACGCACAAAAAAA [CACACA_site6537]", "gcPBM binding intensity (ln)": "9.02 ± 0.69"}, {"sequence": "TACAGATATTATTGCACACATATAAAATACCCCCAA [CACACA_site6014]", "gcPBM binding intensity (ln)": "9.53 ± 0.33"}]}]}
